# Measurements published in PubChem BioAssay AID624170 (National Center for Advancing Translational Sciences (NCATS), 2012).
# The campaign covered roughly 410,000 compounds. About 850 (0.21%) were called active. The inconclusive results got no clear call from the source; some entries with a clear call stand among them for comparison. The call rests on the fitted dose curve; in most records, active means well fitted inhibition curve with a large enough effect; inconclusive means small, poorly fitted or top-dose-only effect, or another doubt; inactive means no such curve, though single readings can be large or run the other way. Potencies of inconclusive entries are left out as doubtful fits.
# Target: Glutaminase kidney isoform, mitochondrial (Homo sapiens) (UniProt O94925)
# Sequence of UniProt O94925 (O94925 whole entry, looked up, canonical isoform): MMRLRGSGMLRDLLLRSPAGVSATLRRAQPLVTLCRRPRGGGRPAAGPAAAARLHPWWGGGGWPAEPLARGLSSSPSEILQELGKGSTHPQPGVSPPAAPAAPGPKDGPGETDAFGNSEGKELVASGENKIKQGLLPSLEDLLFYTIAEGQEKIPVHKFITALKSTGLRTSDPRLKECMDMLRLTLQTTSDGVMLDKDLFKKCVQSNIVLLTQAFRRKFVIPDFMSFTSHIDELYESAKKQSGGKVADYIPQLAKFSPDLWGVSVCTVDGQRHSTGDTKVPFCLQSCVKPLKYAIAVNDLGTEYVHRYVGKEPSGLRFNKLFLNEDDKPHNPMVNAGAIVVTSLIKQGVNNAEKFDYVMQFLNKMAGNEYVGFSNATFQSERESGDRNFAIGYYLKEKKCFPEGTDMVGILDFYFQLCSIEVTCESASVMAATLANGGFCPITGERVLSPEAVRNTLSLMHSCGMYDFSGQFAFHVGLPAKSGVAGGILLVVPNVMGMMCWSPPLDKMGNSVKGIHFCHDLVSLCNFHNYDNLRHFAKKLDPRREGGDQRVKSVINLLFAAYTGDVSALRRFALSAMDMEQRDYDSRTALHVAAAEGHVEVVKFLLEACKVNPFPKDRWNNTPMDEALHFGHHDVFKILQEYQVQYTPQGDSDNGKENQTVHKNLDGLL
# Experiment: qHTS for Inhibitors of Glutaminase (GLS)
# Conditions: GLS enzymatic activity, qHTS titration; series mostly up to 45.5 µM; activity change, negative = inhibition: at the top concentration
# Outline: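 Two-point fluorescence kinetic (t0, 30 min RT) for hKGA; glutamate detected via glutamate oxidase–HRP–Amplex Red. Substrate: 1 mM L-glutamine solution; buffer 45 mM KH2PO4, pH 8.2.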
# On the % scale 0 is the no-effect control and ±100 the full control effect; potency means the concentration at half of the fitted maximal effect; tags describe the fitted curve by direction and shape.
SMILES,"activity change, negative = inhibition",Potency
COc1ccccc1-c1noc(CCC(=O)NC2CCCC2)n1,inactive: -7.59%,
S=C(Nc1ccc(Cl)cc1)Nc1cccc2cnccc12,,"inconclusive [inhibitor, single point]"
O=C1C(=Cc2ccco2)CCCC1=Cc1ccco1,,"inconclusive [inhibitor, single point]"
CC1CCCC(C)N1/N=C/c1ccc(O)c(O)c1 (stereo not given),inactive: -7.21%,
Nc1nc(N)c2[nH]c(=S)[nH]c2n1,,"inconclusive [inhibitor, single point]"
COc1ccc(C(=O)NCCCN2CCOCC2)cc1,inactive: -11.7%,
Cc1ccc2nc(COc3cccc(NC(=O)c4ccccc4Cl)c3)cc(=O)n2c1,,"inconclusive [inhibitor, partial curve, poor fit]"
Cc1nc(-c2ccc(S(=O)(=O)Nc3ccc(Cl)c(C(F)(F)F)c3)cc2)co1,inactive: 1.72%,
CCC(C)Oc1ccc(/C=C/c2[nH]c(=O)[nH]c(=O)c2[N+](=O)[O-])cc1OC (stereo not given),,"inconclusive [inhibitor, single point]"
CCOc1ccc(C(C)=O)cc1CSc1nnc(N)s1,inactive: 0.99%,
Cc1cccc(/C=N/N(CCO)C2=NS(=O)(=O)c3ccccc32)c1,inactive: 6.85%,
COc1ccc(C)cc1NC(=O)c1oc2ccc(S(=O)(=O)N3CCC4(CC3)OCCO4)cc2c1C,inactive: 2.74%,
CCC[n+]1c2ccccc2cc2ccccc21,,"inconclusive [inhibitor, partial curve, poor fit]"
CCC(COC(C)=O)Nc1nc2c([nH]1)c(=O)n(C)c(=O)n2C (stereo not given),inactive: 13.1%,
Brc1cc2c(cc1Br)OCCOCCOCCOCCO2,,"inconclusive [inhibitor, single point]"
CCOc1ccc(C(=O)/C=C/c2cn(CC(O)CN3CCc4ccccc43)c3ccccc23)cc1 (stereo not given),,"inconclusive [inhibitor, partial curve]"
Nc1cc(-c2ccncc2)c[nH]c1=O,,inactive
CCCCCCn1cnc2c(oc3nc4c(cc32)CCCC4)c1=O,inactive: 3.4%,
Cc1cc(C)cc(N(C(=O)Cn2nnc3ccccc32)C(C(=O)NCc2ccco2)c2ccncc2)c1 (stereo not given),inactive: -3.57%,
C#CCOCCOCCOCCNc1nc(N2CCN(C(=O)CCCCCCCCCCNC(=O)[C@H]([C@@H](C)CC)n3cc(CCCCCN)nn3)CC2)nc(N2CCN(C(=O)CCCCCCCCCCNC(=O)[C@@H]([C@H](C)O)n3cc(C)nn3)CC2)n1,,"inconclusive [inhibitor, single point]"
O=C(CN1C(=O)COc2ccc(S(=O)(=O)N3CCCCCC3)cc21)N1CCN(c2ccc(F)cc2)CC1,inactive: 8.54%,
O=c1c2ccccc2ncn1-c1ccc([N+](=O)[O-])cc1Cl,inactive: -7.43%,
CN(C)/C=C1\N=C(c2cccnc2Oc2ccc(Cl)cc2)OC1=O,,"inconclusive [inhibitor, single point]"

SMILES,"activity change, negative = inhibition",Potency
Cn1ccsc1=NC(=O)c1ccc([N+](=O)[O-])o1,,"inconclusive [inhibitor, partial curve, poor fit]"
O=C(O)/C=C\C(=O)Nc1ccc(N2CCN(c3cccc(Cl)c3)CC2)cc1,inactive: 7.35%,
COc1ccc(-c2ccc(CN3C(C)C(=O)N(Cc4cn(CCC5OCCCO5)nn4)CCS3(=O)=O)cc2)cc1 (stereo not given),,"inconclusive [inhibitor, single point]"
C/C(CC(=O)Nc1ccc(Cl)cc1C(F)(F)F)=N\NC(=O)c1cccs1,,"inconclusive [inhibitor, single point]"
CN(C)S(=O)(=O)c1ccc2nnn(O)c2c1,,"inconclusive [inhibitor, single point]"
O=C(O)CN(CC(=O)O)Cc1cc2c(-c3ccccc3C(=O)O)c3cc(CN(CC(=O)O)CC(=O)O)c(=O)cc-3oc2cc1O,,"inconclusive [inhibitor, partial curve, poor fit]"
COc1ccc(/C=C/C(=O)Nc2nc(N)n(-c3ccccc3)n2)cc1,inactive: -6.89%,
CCCCn1c(NC(=O)c2ccccc2)nc2ccccc21,,"inconclusive [inhibitor, single point]"
Oc1ccc(N=Nc2nccs2)c(O)c1,,"inconclusive [inhibitor, single point]"
O=C(N/N=C/c1ccc([N+](=O)[O-])cc1)c1cc(C2CC2)[nH]n1,inactive: -0.835%,
CCOC(=O)CNC(=O)CSc1nc(-c2ccccc2)ns1,,"inconclusive [inhibitor, single point]"
COCCn1c(=S)[nH]c2sc3c(c2c1=O)CCC(C)C3 (stereo not given),,"inconclusive [inhibitor, single point]"
COc1ccc(NCC(=O)N/N=C/C(C)c2ccccc2)cc1 (stereo not given),,"inconclusive [inhibitor, single point]"
O=c1cc(CSc2nnc(-c3cccs3)n2Cc2ccccc2)nc2sc3ccccc3n12,,"inconclusive [inhibitor, partial curve, poor fit]"
Cc1ccccc1N(C(=O)c1snc(C(N)=O)c1N)C(C(=O)NC1CCCC1)c1ccco1 (stereo not given),inactive: -1.79%,
Cc1cc(N/N=C/c2ccc(O)cc2O)nc(N2CCOCC2)n1,,"inconclusive [inhibitor, single point]"
CCOc1ccc(NC(=O)CC2C(=O)N(CC)C(=S)N2CCNC(C)=O)cc1 (stereo not given),,"inconclusive [inhibitor, full curve, poor fit]"
CC(C)CN(CC(C)C)C(=O)c1cccc(S(=O)(=O)N2CCc3ccccc32)c1,,"inconclusive [inhibitor, single point]"
CC(OC(=O)c1ccc2noc(-c3ccccc3)c2c1)C(N)=O (stereo not given),,"inconclusive [inhibitor, full curve, poor fit]"
Cn1c(=O)c(C(=O)c2ccccc2)nc2ccccc21,,active: 11.2 µM
CC(C)(C)NC(=O)Nc1ccc(Cn2cc(C(F)(F)F)ccc2=O)cc1,,"inconclusive [inhibitor, single point]"
O=[N+]([O-])c1c(NCc2ccco2)ccc2nonc12,,"inconclusive [inhibitor, partial curve, poor fit]"
